Measurements as given in the supplement of paper PMC3334620.
Whole data set: some 33,000 sequences, median “E-score (-0.5 to 0.5)” near -0.016, cut for the highest 2% near 0.32. The list shows a part of the results.

Target: T1, Stp1 (UniProt B3LFK1)
T1 sequence: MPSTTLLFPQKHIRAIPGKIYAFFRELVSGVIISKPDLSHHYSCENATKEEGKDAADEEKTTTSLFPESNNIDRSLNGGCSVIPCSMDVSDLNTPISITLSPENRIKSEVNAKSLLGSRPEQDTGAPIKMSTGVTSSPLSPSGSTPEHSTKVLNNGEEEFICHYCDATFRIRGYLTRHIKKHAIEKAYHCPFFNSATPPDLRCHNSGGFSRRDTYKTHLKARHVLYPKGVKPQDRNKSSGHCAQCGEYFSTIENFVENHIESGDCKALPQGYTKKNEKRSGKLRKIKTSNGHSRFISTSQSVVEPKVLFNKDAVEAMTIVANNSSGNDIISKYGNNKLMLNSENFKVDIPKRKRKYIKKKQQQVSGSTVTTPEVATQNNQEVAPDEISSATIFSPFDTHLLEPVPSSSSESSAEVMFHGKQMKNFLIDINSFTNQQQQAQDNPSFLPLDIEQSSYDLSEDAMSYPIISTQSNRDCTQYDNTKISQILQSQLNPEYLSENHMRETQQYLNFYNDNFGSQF
Assay: PBM E-score (8-mer binding enrichment) (E-score (-0.5 to 0.5)); higher = stronger / more preferred TF binding; most listed sequences are background and not binding sites
Details: protein concentration: 200 nM; construct: GST-full length
Method: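 Universal 'all 10-mer' protein binding microarrays (Agilent AMADID 015681) probed with GST-tagged S. cerevisiae TFs (full-length or DBD) made by in vitro transcription/translation (PURExpress), about 100-200 nM. Bound TF was detected with fluorescent anti-GST. Each ungapped 8-mer (which stands for itself and its reverse complement) is scored by the PBM enrichment score (E-score), a modified Wilcoxon-Mann-Whitney statistic from -0.5 to +0.5, computed with the Universal PBM Analysis Suite. Scale: above 0.35 generally sequence-specific binding.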

Sequence	PBM E-score
GCTCCGCC	0.088
AGTCTACC	-0.237
ACTGTTAG	-0.0658
AGGGACCA	-0.242
AGCGCGCC	0.196
GCGTACTA	-0.0007
AAGACGAT	0.079
ATGAGCAA	0.0309
ACAAGTGA	0.0241
CGAAGTGA	0.00778
AGGACAGC	-0.0847
GACACCCC	-0.326
CACTAACC	-0.0137
CATATGGG	-0.035
CGATGAAA	0.13
CAAATCAC	-0.184
AGATGCCT	0.107
AGTAAACG	-0.0409
ACATCGTC	-0.138
CATTGTCC	-0.117
CGTAACCC	0.0311
AATACTTC	-0.00056
GCCGTCCC	0.378
CCGATTAA	0.159
GCGCCAAA	0.138

Sequence	PBM E-score
GTCGCACA	-0.0841
GCCTCCGC	0.173
CCTCGGAC	-0.148
ACTCGACG	0.00711
CTCTTTGC	-0.105
AACAGTTC	-0.0265
GTTAACAA	0.0564
GAGAGGTA	-0.247
CAACTTTC	-0.0498
ACCTCTAC	-0.149
GGACCCCA	-0.298
CGGTGCAG	-0.0834
ATAGGCTA	-0.109
CCTAATTC	-0.148
TGCAGGAA	-0.0691
AAAAACCG	0.0686
GTAGATTA	0.113
CTAGACAC	-0.122
AATTTCGA	-0.0526
ATAGGAGC	0.0649
GAAGAGAA	0.0055
AAGACGGA	-0.0847
CTCGACCC	-0.262
TATCTGAA	0.109
TCGCCCCA	-0.0443

Sequence	PBM E-score
AACTACGA	0.0844
GCTCCTTA	-0.0842
CACTAGGA	-0.161
TATTGGCA	0.0367
AAGCACTA	-0.0436
CTATTATA	0.0632
ATGTTAGA	0.0351
CCCGAGCC	0.0223
CTAACACA	0.124
GGAGCGCC	-0.0511
CCTCCGAC	-0.252
CCACTACC	-0.209
CCAGTCCA	-0.26
CCCAAATC	-0.0904
CATCTGTC	-0.316
AACAGGAA	-0.00789
AGACTGCA	-0.217
AGCAGGTC	-0.104
AGCTGCAG	0.017
CCTAAAGG	0.0566
GTTTTAGA	0.098
CCAGGATC	-0.248
ATCACTCG	0.0999
CCCGCTCG	-0.0988
AGTTTGAA	0.153

Sequence	PBM E-score
CTCTCAGC	-0.132
ACCGCAGC	-0.119
ACAATTGA	-0.01
ACGCAGAA	0.0225
GTTTAAGA	-0.101
ATACCAGG	-0.209
AGATTAAC	0.136
CCACGGGC	-0.0442
CACACGGA	0.253
GGGCTACC	-0.352
CTGCGACA	-0.153
AAGCCAAG	-0.162
CATCGATG	-0.0742
ATAGTACG	0.0384
CAATGATC	-0.0883
ATTGGACA	0.00806
ATAGTTAG	0.0454
TAGGATGA	-0.0101
GTATTGTA	0.21
ATGTAGAC	-0.0825
ATATTGTA	0.131
CCTTACCG	0.109
AGCTCTAA	-0.22
CTCAAGAG	-0.256
CACTAATA	0.145

Sequence	PBM E-score
AGACACCT	-0.133
AGCATGCA	-0.219
CTTGTTGC	0.139
ATTAGCCG	0.236
TAACAACA	0.152
CACGTGCG	0.272
CACCTCCA	-0.0695
AAAAGCAC	-0.146
AAAAATTC	0.115
ACACGTTA	-0.109
ACCATAGC	-0.105
GGCTCGAA	0.173
TCTACCCA	-0.132
GATGAAGC	-0.127
GAGGACCC	-0.273
GTCTGGTA	-0.111
CGTATGAC	0.101
ATAATCAG	0.00958
CATGGGTA	-0.159
CGAGTCCC	-0.21
AAACCCAC	0.0438
ACATTGTC	0.142
ATAGCTGG	-0.156
AGGGGCGG	0.0498
ACCTAGCG	-0.112

Sequence	PBM E-score
CAATAGGG	-0.186
TATACCGA	-0.0108
CCAGCAAA	-0.00823
ATTGACAA	0.126
AAATACTA	0.161
AAATTTGC	0.273
CCGCTGTC	-0.0008
CACGTAAG	-0.0411
AAGCCTGC	-0.1
AGCCGCAA	0.188
CCGCTTTC	-0.0403
GCACCAGA	0.0442
TCACGAGA	-0.299
ACTGAAGC	0.00506
CACTCCTG	-0.138
ACAATAAT	0.125
CGACCTCG	-0.154
ATGCAAAG	0.0474
AATTAACG	0.185
GCGTTAGA	-0.0164
ATTACCTC	0.0362
AACGCGAC	-0.175
ATAGTCAG	-0.0295
CAAACGCG	0.3
GGGCTTCA	-0.215

Sequence	PBM E-score
TGATGCAA	-0.00861
GACAAACA	-0.135
ATCTGGTC	-0.215
CCCGAAAC	-0.0868
ACGTATAT	0.151
TGCCGACA	0.0314
CCATTGTA	-0.0176
TACAAGCA	0.146
AATGCACT	0.109
AAAGCCCA	0.0863
GAAAGTCA	-0.0882
AAGAATTA	-0.004
ATGATAGC	0.134
CTGAAGGC	-0.14
TATTTAGA	0.305
GTCTAGAA	0.0594
CATCCCCG	-0.075
CAAAATTC	0.183
ACCCGGAA	0.0448
GGCCTTAC	-0.0401
AAAGATAA	0.215
CGGGCGGA	-0.173
AGGAAACT	-0.156
ATTCCATC	0.0322
ACCCTATA	-0.28

Sequence	PBM E-score
CTTATCAC	-0.0489
GGATGCGA	-0.14
AAATGATC	-0.0746
CGGGCTCC	-0.285
CTACAGGA	-0.16
CAGGACCG	-0.285
ACAGGATC	-0.0961
GCCAATTA	0.0177
ACGTTTAG	-0.166
ATGCTTCG	0.0151
CGTGTGTC	0.204
CGAAGGGC	0.16
CCACATGA	0.0977
GAAGTGAC	-0.0146
CCCAATTA	0.024
CGGGACTA	-0.231
GAAACGAA	0.133
AAAATATG	0.102
CTCACGTC	-0.298
CCGTGCCC	0.365
AGCTCCTC	-0.254
AAACGAGT	0.0252
AGTTTCAA	-0.061
CTCAATGC	0.0245
ATGTTGAA	-0.0204

Sequence	PBM E-score
AACGATGC	0.097
ACAATGAT	-0.00309
GTGAGGAA	-0.0636
CGTGAAAC	0.106
ACGCAAAT	-0.00737
TACAGCTA	-0.309
CGACTTGC	-0.0985
GACATTAA	-0.0576
CCCCACGA	-0.176
CATGAGGA	-0.0457
TCCACGAA	0.223
GGGTTTAA	-0.06
AGTCGGCC	-0.107
ATATAAAC	0.196
AGACAGCG	-0.02
GTCGGTAA	-0.195
GTTGCGAA	0.0118
TCGGGCAA	-0.167
TAGATATA	0.175
ACATTCAG	-0.126
AAATAAAA	0.174
AGCCAGTA	-0.192
ATGATTAC	0.051
AATACAAC	0.188
AATAACCA	0.0512

Sequence	PBM E-score
GAGGAATC	-0.132
CTTACCAC	-0.171
CAATAGCA	-0.267
ACTACGCC	0.0854
ATAACATC	0.16
AGTATACG	0.114
AATTTACA	0.0653
CCCCTTAC	-0.217
CGTCTCAA	0.0114
AAAGAAAA	0.243
ATTCTAAC	-0.103
GTAATAGA	-0.0791
GCTTACGA	-0.271
AACAAGTA	0.0306
CCCTCCCA	-0.216
AACCTCTG	-0.194
TGCGCCAA	0.0818
CGGGGTCA	-0.114
CCTGGGAC	-0.366
TGGCGCCA	0.26
ACTGGGTC	-0.306
ATGGTATA	0.0796
GGAAAGAA	0.0492
TATCCCCA	-0.189
GAATAGTC	-0.205

Sequence	PBM E-score
GACTCGGC	0.0727
AGTACGCG	0.0629
GCGTAATA	0.186
CTTCCGGA	-0.118
GTTCAATA	0.0887
CTTTCTTA	-0.00878
AAGATCCA	0.0992
GTAAACAA	0.213
CGCCATCC	0.0995
GCTATACA	-0.0217
ACCATAGT	-0.0656
GTGTCTTA	-0.0267
ATGGGAAA	-0.112
CAAAAGTC	0.0582
ATAGCTCC	-0.288
CACTCCAA	-0.0445
ATAGCCCG	-0.152
GCAAAAGA	0.0536
ACGATTAG	0.0216
GTGTTTAA	0.092
ATACGCGG	0.263
AGGGACTG	-0.302
GAAATCCA	0.0612
CTGCCGTC	0.299
CAGCTGGG	-0.265

Sequence	PBM E-score
GGTTAATA	0.224
CTTCGCTC	0.155
CTGTTGCC	0.0784
GACTTTTA	-0.244
ATAGACCG	-0.123
GGGTGAAC	0.033
CTGTTCGA	-0.209
CTAACGAA	0.13
ATTCCTCC	-0.157
AAGTGATT	0.0164
ACGTTCAG	-0.147
GCGGTACA	0.1
ATCCAGTC	-0.0342
AAGCGGTC	-0.149
AGCACACT	-0.0769
CGTGGATA	-0.0288
AACGAGTA	0.034
GCATAGCC	-0.131
ATCAAACC	0.00742
AGACTACC	-0.216
GATGGTAC	-0.00639
ACAACCCC	-0.242
CAATTGTA	0.0616
ATCAGATC	-0.0902
AATACAGG	0.0178

Sequence	PBM E-score
GCTGCTAA	-0.00243
CGTGCAAC	0.138
GTCTTAGA	-0.022
ATAACGGA	0.0775
AGGCTTAT	-0.108
ATAGCCTA	-0.144
CCAGTCCG	-0.172
CCATTATC	0.199
GGGTTACC	-0.0716
AACAGATC	0.109
ACGCGCCC	0.289
GTTGGCTA	-0.0564
CATCTGCC	-0.132
CTCCGCAC	0.119
GCCCTCAC	-0.251
TAATCAGA	0.104
CATTTCAC	-0.0457
AGATTCCC	-0.18
CTATAACA	0.0642
ACGATGGG	-0.235
CCCCTCCA	-0.239
CGCTCTCC	-0.216
ACATGAAT	0.0303
CCTGGGGC	-0.253
AACTGCTC	-0.0803

Sequence	PBM E-score
GGCGCGCC	0.423
ACTACAAT	0.156
AGAGATCC	-0.184
CCACTTAC	0.0552
CTAGCCGC	0.395
AGATCACA	0.109
AGGCAGAA	0.0807
CCCGAAAG	-0.132
CATGTGGC	0.32
AAGGCTAT	0.0747
ATTGCAAG	0.0808
GTTGCTAA	0.0487
CGATCTAC	-0.0726
CCCTGTGA	-0.138
CCTGTTAC	-0.152
CGAACAGC	-0.164
CTGTGAAG	-0.0819
GGTTCATA	-0.0452
CCCCCCGG	-0.36
